Among the data in publication PMC12136788 are binding signal values, retold here.

The other results are listed elsewhere or left out.

To fix the notation:
B1: chr11:35231115:35231675:+|3pUTR|ENSG00000026508|msi1|FALSE|unique (ssRNA)
RNA: GGGAGUUCUACAGUCCGACGAUCCAGGACAAGGUUCAAAAUGGUUACAACAGCCUCUACCUGUCGCCCCAGGGAGAAAGGGGUAGUGAUACAAGUCUCAUAGCCAGAGAUGGUUUUCCACUCCUUCUAGAUAUUCCCAAAAAGCAACAGAGGAUUGAGCAUCA
B2: chr4:175634378:175634624:-|3pUTR|ENSG00000150625|msi1|FALSE|unique (ssRNA)
RNA: GGGAGUUCUACAGUCCGACGAUCUUUCUUAUGUUUUGAAAAGAAAAUAGCUUUUUAUACUUUUUAGUUUUGAUUUCGGUAACUAGUUUAACUACAGGUAACCUUCAAAGGGACCAUUGUACAUUAUGAACAAUAGAUAGAGAUCAACAGAGGAUUGAGCAUCA
B3: ENSG00000175727:stop:overlap|stop_codon|ENSG00000175727|stop_codon|NA|stop_codon (ssRNA)
RNA: GGGAGUUCUACAGUCCGACGAUCAGCUGCCAGAGCAGGCGUCCAAGGCUGUCACCAGGAUUGGCAAGAGAUUGGGAGAGUCCUAGCUGCUUAGCUGGCAUGUGGCCGCAUGAGAUGCCAGGAGACCCUUCCCUGCCCAUGGAGCAACAGAGGAUUGAGCAUCA
B4: chr7:7234405:7234460:+|CDS|ENSG00000106392|msi1_unk|total|mutant (ssRNA)
RNA: GGGAGUUCUACAGUCCGACGAUCAAUUUUUUAACCUUCCUCUGUGGAUCAGCAACCGGAUUUCUUUUAUGUUCUCAGCUAUUCCGUAUUUUGUUGGGAGAAAAGGUUGACACCCAGCCUAAUGUUCUUCAUAAUGAUCCUCAUCAACAGAGGAUUGAGCAUCA
B5: chr14:92688591:92688692:+|3pUTR|ENSG00000100599|msi1|FALSE|unique (ssRNA)
RNA: GGGAGUUCUACAGUCCGACGAUCUCCCCAUGAGUCCCCCACACCCACCCCAUCCUCGGUCUUUGCAAAGAAGGGCCCGAGCUUAGUUUCCCCAGGACUGGCCUAGGAAGGAGCACCGGCCACAGCUGCUCCCCGUGCCACUCACAACAGAGGAUUGAGCAUCA
B6: chr6:15520333:15520434:+|3pUTR|ENSG00000008083|unk|FALSE|unique (ssRNA)
RNA: GGGAGUUCUACAGUCCGACGAUCCUUGCUGUAGGAUUCAAGCUGUCUUUGCACUAGCUCUAAAGAAGAUUUUCUUCUGGUUUUAGAGAACUAAUUUUGUUUUAGCAUUAAACUGUUGAACUUUUUUUUGUACUUAGAAAACCUCAACAGAGGAUUGAGCAUCA
B7: chr2:209733988:209734100:+|3pUTR|ENSG00000078018|unk|total|mutant (ssRNA)
RNA: GGGAGUUCUACAGUCCGACGAUCUCUGAUAAUUCCCGAGCCUGUUACCACCGAAAGGCAUUUCUUCAAUGGCUGGUUGCCGUCCGUUCAUGUUUUUCAAUCAAAUUUGCAAAUGUAUUUGUUGCUGUACCGUGAUUGUUUUGCCAACAGAGGAUUGAGCAUCA
B8: chr8:80637648:80637749:-|3pUTR|ENSG00000164684|unk|total|mutant (ssRNA)
RNA: GGGAGUUCUACAGUCCGACGAUCUGCGCUCCGCUGCAAAGUGCCUGUCAGCAGCUCCAGGCACCAACAAGGUGCCCUUUUAUCCGACAAUUCCUGCCCGAACAUAACCAUAUUGCAGAUGAAAAUUUUCAACCGAGAAUGACACAACAGAGGAUUGAGCAUCA
B9: ENSG00000198589:be:win_8251|CDS|ENSG00000198589|bound_else_gene|NA|bound_elsewhere_windowed (ssRNA)
RNA: GGGAGUUCUACAGUCCGACGAUCCUCUUCUGUACAUUCAGUGUGAAUGGAAAACUCCAGGCCACGAUGGAAACAGAUGAUAACAUAAGAGCCAUCCAGCUGAGCCGAGAUGGGCAGUACCUGCUCACAGGAGGAGACAGAGGACAACAGAGGAUUGAGCAUCA
B10: chr8:41263181:41263319:-|3pUTR|ENSG00000104332|msi1|total|mutant (ssRNA)
RNA: GGGAGUUCUACAGUCCGACGAUCCUUAAGUGAUUUGCCUGUAAUUUUGGAUGAUUAAAAAAUGUGUAUAUAUAUCCGCUAAUCCGAAAUAUUCUACUUCUCUGUUGUCAAACUGAAAUUCAGAGCAAGUUCCUGAGUGCGUGGCAACAGAGGAUUGAGCAUCA
B11: ENSG00000107863:be:win_1951|CDS|ENSG00000107863|bound_else_gene|NA|bound_elsewhere_windowed (ssRNA)
RNA: GGGAGUUCUACAGUCCGACGAUCCCAGUAAAUCACUUGCAUCAGAACAGUCUGUUGAAUCAGCAGACAUGGGUAAGGACUGACAGUGCCCCCGAUCAGCAAGUGGAGACUGGGAAAUCCCCCUCUUUAUCUGGAGCCUCUGCCCAACAGAGGAUUGAGCAUCA
B12: chr15:73714018:73714119:+|3pUTR|ENSG00000103855|msi1|total|mutant (ssRNA)
RNA: GGGAGUUCUACAGUCCGACGAUCCCCACCCAUAAUUCUUACCCAGAGCAUGGGGUUGGGGCGGAAACCUGGAGAGAGGGACACCGCCCCUCGCCACGGCCCGAGAAUCUGGUGGUGUCCAAAAUGUCUGUCCAGGUGUGGGCACAACAGAGGAUUGAGCAUCA
B13: ENSG00000182541:stop:overlap|stop_codon|ENSG00000182541|stop_codon|NA|stop_codon (ssRNA)
RNA: GGGAGUUCUACAGUCCGACGAUCUGGAGGAGUUGGACCACACUGUGAGCAUGCAGUACGGCCUGACCCGGGACUCACCUCCCUAGCCCUGGCCCAGCCCCCUGCAGGGGGGUGUUCUACAGCCAGCAUUGCCCCUCUGUGCCCCAACAGAGGAUUGAGCAUCA
B14: ENSG00000120802:stop:overlap|stop_codon|ENSG00000120802|stop_codon|NA|stop_codon (ssRNA)
RNA: GGGAGUUCUACAGUCCGACGAUCGUGGAACAUUAUUUGGAGGAGAAGUAUGCAAAGUAAUUAAAAAGCGUGGAAAUAAACACUAGUAAAAUUAAGGACAAAAAGACAUCUAUCUUAUCUUUCAGGUACUUUAUGCCAACAUUUCAACAGAGGAUUGAGCAUCA
B15: chr12:285015:285116:-|3pUTR|ENSG00000073614|msi1|total|mutant (ssRNA)
RNA: GGGAGUUCUACAGUCCGACGAUCUAACAGGGCAUACCGGAUGUGGCUUUUGUCCAGCUGACCGCCGUCCGAGGCUUACAACUCCGGAGCAGCACCAACUGAAGGUGCUAAUUGCUUGGAUCUCCUUCAUUGGGACCGUUGGAGCAACAGAGGAUUGAGCAUCA
B16: chr8:23843870:23844003:-|3pUTR|ENSG00000159167|msi1|FALSE|unique (ssRNA)
RNA: GGGAGUUCUACAGUCCGACGAUCAAUUCCAGAGGACUCUGCUUAAACAAAGCAGUAUAUAAUAACUUUAUUGCAUAUAGAUUUAGUUUUGUAACUUAGCUUUAUUUUUCUUUUCCUGGGAAUGGAAUAACUAUCUCACUUCCACAACAGAGGAUUGAGCAUCA
B17: chr8:96333981:96334082:+|3pUTR|ENSG00000156471|msi1|FALSE|bound_elsewhere (ssRNA)
RNA: GGGAGUUCUACAGUCCGACGAUCUUAAGUUCAGGCCACUUUUCUGUCUUUUAUUUGGUUACUGUUGUUAUUUGUUUUUAAGUUAGGAUGCUUUUUAACAGCCUUUAGAAGCCGCUGCUGAAAUUGAUACUGGGGGAAGGGUUCCAACAGAGGAUUGAGCAUCA
B18: chr5:136988535:136988636:-|CDS|ENSG00000152377|msi1|FALSE|unique (ssRNA)
RNA: GGGAGUUCUACAGUCCGACGAUCGGAAAGCAUCAGGCUUGGUGGCAGCUGAGAUAUGCCUUUUGUUUGGCAGGGUUUGACACUAGCAUCCUGCCCAUCUGCAAGGACUCCCUGGGCUGGAUGUUCAACAAGUUGGACAUGAACCAACAGAGGAUUGAGCAUCA
B19: ENSG00000107863:be:win_1801|CDS|ENSG00000107863|bound_else_gene|NA|bound_elsewhere_windowed (ssRNA)
RNA: GGGAGUUCUACAGUCCGACGAUCACUACUUGUGGAAUGUCACUGCCUCGGGGUAUUUCACAAGACAGGUCACCUCUUGUGAAAGUCCGAAGUAAUUCUCUGAAAGCUCCUUCCACGCAUGUCACAAAACCAUCAUUUAGCCAGCAACAGAGGAUUGAGCAUCA
B20: chr1:20652278:20652361:-|3pUTR|ENSG00000244038|msi1_unk|total|mutant (ssRNA)
RNA: GGGAGUUCUACAGUCCGACGAUCGACUGAGGGGCCCGAGCCCUCUCCGCACAGCGUGGAGACGGGGCAAGGAGGGGGGUUAUCCGGAUUGGUGGUUUUGUUUUGCUUUGUUUAAAGCCGUGGGAAAAUGGCACAACUUUACCUCAACAGAGGAUUGAGCAUCA
B21: chr3:130733575:130733676:-|CDS|ENSG00000196455|msi1|total|mutant (ssRNA)
RNA: GGGAGUUCUACAGUCCGACGAUCCGUCAAAGAGGUUCCUCGUAAUGAUAUCAAUAUUUAUCCGGAAUACAUUCUGCCAGGCACCGCCCACUCCGCCCAAGAUGAUGCUACUAUCGUCCGACCCGCCUAUGCUGGUAAGAGUUUCAACAGAGGAUUGAGCAUCA
B22: chr1:42926584:42926685:-|3pUTR|ENSG00000117394|msi1|total|mutant (ssRNA)
RNA: GGGAGUUCUACAGUCCGACGAUCGCCUGAGGGUGGAGACUAAGCCCUGUCGAGACACUUGCCUUCUUCACCCAGCUAAUCUGCCGGGCUGGACCUAUGUCCUAAGGACACACUAAUCGAACUAUGAACUACAAAGCUUCUAUCCAACAGAGGAUUGAGCAUCA

This assay has as its target MSI1 full-length (mouse, UniProt Q61474 1-362). Nature of the assay: nsRBNS (natural sequence RNA bind-n-seq); RBNS binding buffer (assumed for nsRBNS): 25 mM Tris pH 7.5, 150 mM KCl, 3 mM MgCl2, 0.01% Triton X-100, 500 ug/ml BSA, 20 U/ml SUPERase-In, 4 C; UNK is unkempt and MSI1 is Musashi-1; names of the RNAs are library labels; protein concentration not given here; high values mean tight binding.
Chain of UniProt Q61474 (Q61474 whole entry): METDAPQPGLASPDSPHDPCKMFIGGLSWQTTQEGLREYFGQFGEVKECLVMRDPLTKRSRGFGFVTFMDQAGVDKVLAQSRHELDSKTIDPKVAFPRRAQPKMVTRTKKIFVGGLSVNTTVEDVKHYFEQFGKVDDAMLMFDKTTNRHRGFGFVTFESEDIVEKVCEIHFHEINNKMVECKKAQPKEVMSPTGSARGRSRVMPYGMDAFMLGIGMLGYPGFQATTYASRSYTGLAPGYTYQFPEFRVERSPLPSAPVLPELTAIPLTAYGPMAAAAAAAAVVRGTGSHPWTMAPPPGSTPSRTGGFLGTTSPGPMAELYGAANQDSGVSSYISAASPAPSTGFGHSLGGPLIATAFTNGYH
B1: the binding signal was found to be 0.641 enrichment R.

The molecule B2 came in with a binding signal of 11.1 enrichment R.

B3 had a binding signal of 0.818 enrichment R.

In the case of B4, the binding signal was 0.347 enrichment R.

Molecule B5 registered a binding signal of 0.67 enrichment R.

B6 came in with a binding signal of 3.97 enrichment R.

B7 gave a binding signal of 0.236 enrichment R.

In turn, B8 came in with a binding signal of 0.515 enrichment R.

B9: the binding signal was determined as 0.336 enrichment R.

Regarding B10, the binding signal worked out at 0.429 enrichment R.

With B11, the binding signal turned out to be 0.425 enrichment R.

The molecule B12 came in with a binding signal of 0.222 enrichment R.

B13 registered a binding signal of 0.577 enrichment R.

In the case of B14, the binding signal was 1.57 enrichment R.

B15: the binding signal stood at 0.508 enrichment R.

The molecule B16 yielded a binding signal of 7.3 enrichment R.

For B17, the binding signal is 1.79 enrichment R.

With B18, the binding signal was determined as 0.495 enrichment R.

As for B19, the binding signal turned out to be 0.533 enrichment R.

B20: the binding signal came out at 0.383 enrichment R.

Take B21: the binding signal is 0.583 enrichment R.

Regarding B22, the binding signal was determined as 0.476 enrichment R.
